# From the supplement of paper PMC8728848
# This is one part of the list.
# What was measured:
# Test in all cases: glycan array binding signal (z-score within array); higher = stronger binding
# Conditions in all cases: glycan notation: IUPAC condensed, linker removed
# [1] = molecular target: Gal(b1-4)GlcNAc(b1-6)GalNAc
# Procedure, shortened: (§1)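 Negative Z-scores can be read as non-binding. The Z-score is calculated within each array and then averaged across arrays of one protein sequence at different concentrations or buffers and across linkers. Arrays, 3228 in all, were curated from the Consortium for Functional Glycomics database and kept only where the protein sequence was available.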
# [2] = molecular target: Gal(b1-4)GlcNAc(b1-6)[Gal(b1-3)]GalNAc
# Procedure, shortened: as §1
# [3] = molecular target: Gal(b1-4)GlcNAc(b1-6)[Gal(b1-4)GlcNAc(b1-3)]GalNAc
# Procedure, shortened: as §1
# Gal(b1-4)GlcNAc6P = molecular target: Gal(b1-4)GlcNAc6P
# Procedure, shortened: as §1
# Gal(b1-6)Gal = molecular target: Gal(b1-6)Gal
# Procedure, shortened: as §1
# Gal3S(b1-3)GalNAc = molecular target: Gal3S(b1-3)GalNAc
# Procedure, shortened: as §1
# Gal3S(b1-3)GlcNAc = molecular target: Gal3S(b1-3)GlcNAc
# Procedure, shortened: as §1
# [4] = molecular target: Gal3S(b1-3)[Fuc(a1-4)]GlcNAc
# Procedure, shortened: as §1
# Gal3S(b1-4)Glc = molecular target: Gal3S(b1-4)Glc
# Procedure, shortened: as §1
# Gal3S(b1-4)Glc6S = molecular target: Gal3S(b1-4)Glc6S
# Procedure, shortened: as §1
# Gal3S(b1-4)GlcNAc = molecular target: Gal3S(b1-4)GlcNAc
# Procedure, shortened: as §1
# [5] = molecular target: Gal3S(b1-4)[Fuc(a1-3)]Glc6S
# Procedure, shortened: as §1
# [6] = molecular target: Gal3S(b1-4)[Fuc(a1-3)]GlcNAc
# Procedure, shortened: as §1
# [7] = molecular target: Gal3S(b1-4)[Fuc(a1-3)]GlcNAc6S
# Procedure, shortened: as §1
# Gal3S4S(b1-4)GlcNAc = molecular target: Gal3S4S(b1-4)GlcNAc
# Procedure, shortened: as §1
# Gal3S6S(b1-4)GlcNAc = molecular target: Gal3S6S(b1-4)GlcNAc
# Procedure, shortened: as §1
# Gal3S6S(b1-4)GlcNAc6S = molecular target: Gal3S6S(b1-4)GlcNAc6S
# Procedure, shortened: as §1
# Gal4S(b1-4)GlcNAc = molecular target: Gal4S(b1-4)GlcNAc
# Procedure, shortened: as §1
# Gal4S6S(b1-4)GlcNAc = molecular target: Gal4S6S(b1-4)GlcNAc
# Procedure, shortened: as §1
# Gal6P(b1-4)GlcNAc = molecular target: Gal6P(b1-4)GlcNAc
# Procedure, shortened: as §1
# Gal6S(b1-3)GlcNAc = molecular target: Gal6S(b1-3)GlcNAc
# Procedure, shortened: as §1
# Gal6S(b1-3)GlcNAc6S = molecular target: Gal6S(b1-3)GlcNAc6S
# Procedure, shortened: as §1
# Gal6S(b1-4)Glc = molecular target: Gal6S(b1-4)Glc
# Procedure, shortened: as §1
# Gal6S(b1-4)Glc6S = molecular target: Gal6S(b1-4)Glc6S
# Procedure, shortened: as §1
# Gal6S(b1-4)GlcNAc = molecular target: Gal6S(b1-4)GlcNAc
# Procedure, shortened: as §1
# Gal6S(b1-4)GlcNAc6S = molecular target: Gal6S(b1-4)GlcNAc6S
# Procedure, shortened: as §1
# GalNAc(a1-3)Gal = molecular target: GalNAc(a1-3)Gal
# Procedure, shortened: as §1
# GalNAc(a1-3)GalNAc = molecular target: GalNAc(a1-3)GalNAc
# Procedure, shortened: as §1
# [8] = molecular target: GalNAc(a1-3)GalNAc(b1-3)Gal(a1-4)Gal(b1-4)Glc
# Procedure, shortened: as §1
# [9] = molecular target: GalNAc(a1-3)GalNAc(b1-3)Gal(a1-4)Gal(b1-4)GlcNAc
# Procedure, shortened: as §1
# GalNAc(b1-3)Gal = molecular target: GalNAc(b1-3)Gal
# Procedure, shortened: as §1
# [10] = molecular target: GalNAc(b1-3)Gal(a1-4)Gal(b1-4)GlcNAc
# Procedure, shortened: as §1
# [11] = molecular target: GalNAc(b1-3)Gal(a1-4)Gal(b1-4)GlcNAc(b1-3)Gal(b1-4)Glc
# Procedure, shortened: as §1
# [12] = molecular target: GalNAc(b1-3)Gal(a1-6)Gal(b1-4)Glc
# Procedure, shortened: as §1
# GalNAc(b1-3)GalNAc = molecular target: GalNAc(b1-3)GalNAc
# Procedure, shortened: as §1
# GalNAc(b1-3)GlcNAc = molecular target: GalNAc(b1-3)GlcNAc
# Procedure, shortened: as §1
# GalNAc(b1-4)Gal(b1-4)Glc = molecular target: GalNAc(b1-4)Gal(b1-4)Glc
# Procedure, shortened: as §1
# GalNAc(b1-4)GlcNAc = molecular target: GalNAc(b1-4)GlcNAc
# Procedure, shortened: as §1
binder,measurement,setting,value
PX9961U-pdi-543-24-543 (Parabacteroides distasonis) (protein) EEPVGEFLPGQVESEENIEGIVTGAYAVLDGYYASDAINSGCSNWQFGDVVSDDAYKGGGGTGDQNQIHLMEIFNANPTGIDFEARWAALYEGIKRCNQAIRLLNGSEVKNKEQRLAEMRFLRGHYYFNLKIIYNQIPWIDETLVDPNEYNKKSNIEFSSDQLWEKILEEFSAAYKVLPESQADYGRPTKMAARAYMAKVYLYQSKWKECLEACDEVIQSGKYELFPDFRNVFLPENDNCSEIIFAIQLSINDGSPNNENGSYGDRLLPPGGPYPVYGFLRPTQNLVNAYKTDVKGLPYNDGKDVSENDYVDVRLDHTLARPNIPFMDVQLYDWTPREASVYGPYSPKKRLVSLNSTYYSPIWPYVNALNFYVIRYADLLLWRAEAAIETGDLETGRKYINMIRERAKNTQHVKTMDQSQDAANYKVGVYDEPFKSKNEAVQALRMERRLEMAHEGIRFFDLVRWGVADEVINAYIAKEKVFRSHLQNAHFVKGKHEYFPIPQSMIDICGTEVMKQNPGY,glycan array binding signal (z-score),[1],-0.178
same,glycan array binding signal (z-score),[2],0.217
same,glycan array binding signal (z-score),[3],0.48
same,glycan array binding signal (z-score),Gal(b1-4)GlcNAc6P,-0.434
same,glycan array binding signal (z-score),Gal(b1-6)Gal,-0.422
same,glycan array binding signal (z-score),Gal3S(b1-3)GalNAc,-0.41
same,glycan array binding signal (z-score),Gal3S(b1-3)GlcNAc,-0.395
same,glycan array binding signal (z-score),[4],-0.373
same,glycan array binding signal (z-score),Gal3S(b1-4)Glc,-0.289
same,glycan array binding signal (z-score),Gal3S(b1-4)Glc6S,-0.356
same,glycan array binding signal (z-score),Gal3S(b1-4)GlcNAc,-0.348
same,glycan array binding signal (z-score),[5],0.065
same,glycan array binding signal (z-score),[6],-0.303
same,glycan array binding signal (z-score),[7],-0.27
same,glycan array binding signal (z-score),Gal3S4S(b1-4)GlcNAc,-0.37
same,glycan array binding signal (z-score),Gal3S6S(b1-4)GlcNAc,-0.299
same,glycan array binding signal (z-score),Gal3S6S(b1-4)GlcNAc6S,-0.332
same,glycan array binding signal (z-score),Gal4S(b1-4)GlcNAc,-0.452
same,glycan array binding signal (z-score),Gal4S6S(b1-4)GlcNAc,-0.394
same,glycan array binding signal (z-score),Gal6P(b1-4)GlcNAc,-0.41
same,glycan array binding signal (z-score),Gal6S(b1-3)GlcNAc,-0.416
same,glycan array binding signal (z-score),Gal6S(b1-3)GlcNAc6S,-0.387
same,glycan array binding signal (z-score),Gal6S(b1-4)Glc,0.317
same,glycan array binding signal (z-score),Gal6S(b1-4)Glc6S,-0.286
same,glycan array binding signal (z-score),Gal6S(b1-4)GlcNAc,-0.03
same,glycan array binding signal (z-score),Gal6S(b1-4)GlcNAc6S,0.185
same,glycan array binding signal (z-score),GalNAc(a1-3)Gal,-0.221
same,glycan array binding signal (z-score),GalNAc(a1-3)GalNAc,-0.455
same,glycan array binding signal (z-score),[8],-0.366
same,glycan array binding signal (z-score),[9],-0.277
same,glycan array binding signal (z-score),GalNAc(b1-3)Gal,-0.489
same,glycan array binding signal (z-score),[10],0.664
same,glycan array binding signal (z-score),[11],0.108
same,glycan array binding signal (z-score),[12],-0.274
same,glycan array binding signal (z-score),GalNAc(b1-3)GalNAc,-0.426
same,glycan array binding signal (z-score),GalNAc(b1-3)GlcNAc,-0.405
same,glycan array binding signal (z-score),GalNAc(b1-4)Gal(b1-4)Glc,-0.303
same,glycan array binding signal (z-score),GalNAc(b1-4)GlcNAc,0.049
